Measurements reported in the supplement of paper PMC12217912.
This is one part of the list. The full chains were built here from the parent and the listed change. Values near 0.05 are background.

B1: TEV protease; numbered along this chain (parent)
chain: MGESLFKGPRDYNPISSSICHLTNESDGHTTSLYGIGFGPFIITNKHLFRRNNGTLVVQSLHGVFKVKDTTTLQQHLVDGRDMIIIRMPKDFPPFPQKLKFREPQREERICLVTTNFQTKSMSSMVSDTSCTFPSGDGIFWKHWIQTKDGQCGSPLVSTRDGFIVGIHSASNFTNTNNYFTSVPKNFMELLTNQEAQQWVSGWRLNADSVLWGGHKVFMVKPEEPFQPVKEATQL

Variants of: B1
Experiment: raw area under fraction-flipped curve 0-4 h after induction (AUC4h, not background-subtracted), DNA-recorder readout of cleavage of the substrate (dimensionless); higher = more cleavage of the substrate by the protease variant
Conditions: temperature: 34 °C; time window: 0-4 h after rhamnose induction
Protocol: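 In vivo DNA recorder in E. coli TOP10(DE3) ΔrhaA at 34 °C. Each TEVp single-site mutant (parent TEVp 0) is paired with a single-site variant of the 7-mer TEVs (canonical ENLYFQ|S). The substrate sits between flexible linkers in a Bxb1-sfGFP-TEVs-SsrA fusion, so cleavage stabilises Bxb1 and speeds flipping of a recombination array, read by NGS. The value is the raw area under the fraction-flipped curve over 0-4 h after rhamnose induction (AUC4h), with ≥20 reads per time point. It is not background-subtracted; inactive controls average about 0.047.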
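Further: Bxb1 expression induced with 0.2% (w/v) L-rhamnose at OD600 near 0.5, cultures sampled hourly, flipped fraction per protease–substrate barcode pair counted by paired-end Illumina sequencing.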

Row | Variant | area with substrate ENLYFAS | area with substrate ENLYFHS | area with substrate ENLYFKS | area with substrate ENLYFPS | area with substrate ENLYFTS | area with substrate ENLYFCS | area with substrate ENLYFDS | area with substrate ENLYFFS | area with substrate ENLYFGS | area with substrate ENLYFIS | area with substrate ENLYFMS | area with substrate ENLYFNS | area with substrate ENLYFWS | area with substrate ENLYFES | area with substrate ENLYFLS | area with substrate ENLYFRS | area with substrate ENLYFSS | area with substrate ENLYFVS | area with substrate ENLYFYS
1 | P89D | 0.0474 | 0.0051 | 0.0421 | 0.0509 | 0.0613 |  |  |  |  |  |  |  |  |  |  |  |  |  | 
2 | S154E |  |  | 0.0554 | 0.0325 | 0.0664 | 0.0505 | 0.0623 | 0.0733 | 0.0696 | 0.0732 | 0.0593 | 0.0442 | 0.0761 |  |  |  |  |  | 
3 | P228I |  |  |  |  | 0.0664 | 0.0629 |  | 0.0651 |  |  |  |  |  | 0.0715 | 0.0238 | 0.0635 |  |  | 
4 | K221P |  | 0.059 | 0.0367 | 0.0602 |  | 0.0507 |  | 0.0622 | 0.0492 | 0.0574 | 0.0581 | 0.0682 | 0.0585 |  | 0.062 | 0.0742 | 0.0823 | 0.0548 | 0.087
5 | F173V |  |  | 0.137 |  | 0.0638 | 0.0657 | 0.0667 | 0.0633 |  | 0.0542 | 0.0648 | 0.0433 | 0.0529 | 0.0574 | 0.0268 | 0.0549 | 0.0663 |  | 0.0579
6 | M188V |  |  |  | 0.053 |  | 0.0482 |  | 0.0701 | 0.048 | 0.0516 |  | 0.0792 | 0.0774 |  | 0.0534 | 0.0517 | 0.0501 |  | 0.0473
7 | L33T |  |  | 0.065 | 0.0654 | 0.0453 | 0.054 |  | 0.0829 |  |  | 0.0696 | 0.054 |  | 0.0704 |  |  |  | 0.0569 | 
8 | D79R |  |  | 0.0555 | 0.0493 | 0.0515 | 0.0973 | 0.0565 | 0.066 |  | 0.0575 | 0.0589 | 0.0615 | 0.0625 | 0.0664 | 0.0618 | 0.0647 | 0.0631 |  | 
9 | S201M |  | 0.0747 |  | 0.0527 |  | 0.0611 | 0.0844 | 0.0659 |  | 0.0573 | 0.0737 | 0.0617 | 0.067 | 0.0744 |  | 0.0608 | 0.0548 |  | 0.0624
10 | P134M |  | 0.0554 |  | 0.0482 | 0.063 | 0.0513 | 0.0484 | 0.0756 | 0.0629 | 0.0614 |  |  | 0.0613 | 0.0757 |  | 0.0507 |  |  | 
11 | I110W |  |  |  | 0.0421 |  | 0.0424 |  |  |  | 0.0504 |  |  |  | 0.0588 |  | 0.0443 | 0.0353 |  | 0.034
12 | K7T |  |  | 0.0636 | 0.0566 |  | 0.0667 |  | 0.0643 |  | 0.0551 | 0.0659 | 0.0498 |  |  | 0.0451 |  | 0.0399 |  | 0.0546
13 | Q151K |  | 0.056 |  | 0.0528 | 0.0489 | 0.0668 | 0.0426 | 0.0563 |  | 0.0472 | 0.0444 | 0.0636 | 0.0481 |  |  | 0.0593 | 0.0575 |  | 0.0534
14 | Y12T |  |  | 0.0544 | 0.0599 | 0.0529 | 0.0463 | 0.0539 |  |  | 0.0578 | 0.0763 | 0.107 | 0.0507 | 0.0639 | 0.0688 |  | 0.0593 | 0.0587 | 
15 | S130T |  |  |  | 0.0656 |  | 0.0601 |  |  |  |  |  |  | 0.0677 | 0.06 |  |  |  |  | 0.0866
16 | H215Y |  |  |  | 0.0518 |  | 0.065 | 0.0583 | 0.0735 |  | 0.0467 | 0.0745 |  | 0.0385 |  |  | 0.0605 |  |  | 0.0409
